In the supplement of paper PMC12217912:
Some of the results follow. The full chains were built here from the parent and the listed change. Values near 0.05 are background.

B1: TEV protease; numbered along this chain (parent)
chain: MGESLFKGPRDYNPISSSICHLTNESDGHTTSLYGIGFGPFIITNKHLFRRNNGTLVVQSLHGVFKVKDTTTLQQHLVDGRDMIIIRMPKDFPPFPQKLKFREPQREERICLVTTNFQTKSMSSMVSDTSCTFPSGDGIFWKHWIQTKDGQCGSPLVSTRDGFIVGIHSASNFTNTNNYFTSVPKNFMELLTNQEAQQWVSGWRLNADSVLWGGHKVFMVKPEEPFQPVKEATQL

Variants of: B1
Test: raw area under fraction-flipped curve 0-4 h after induction (AUC4h, not background-subtracted), DNA-recorder readout of cleavage of the substrate (dimensionless); higher = more cleavage of the substrate by the protease variant
Settings: temperature: 34 °C; time window: 0-4 h after rhamnose induction
Protocol: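 In vivo DNA recorder in E. coli TOP10(DE3) ΔrhaA at 34 °C. Each TEVp single-site mutant (parent TEVp 0) is paired with a single-site variant of the 7-mer TEVs (canonical ENLYFQ|S). The substrate sits between flexible linkers in a Bxb1-sfGFP-TEVs-SsrA fusion, so cleavage stabilises Bxb1 and speeds flipping of a recombination array, read by NGS. The value is the raw area under the fraction-flipped curve over 0-4 h after rhamnose induction (AUC4h), with ≥20 reads per time point. It is not background-subtracted; inactive controls average about 0.047.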
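Note: Bxb1 expression induced with 0.2% (w/v) L-rhamnose at OD600 near 0.5, cultures sampled hourly, flipped fraction per protease–substrate barcode pair counted by paired-end Illumina sequencing.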

Variant	area with substrate ENLYAQS	area with substrate ENLYCQS	area with substrate ENLYGQS	area with substrate ENLYKQS	area with substrate ENLYMQS	area with substrate ENLYQQS	area with substrate ENLYSQS	area with substrate ENLYTQS	area with substrate ENLYVQS	area with substrate ENLYYQS	area with substrate ENLYDQS	area with substrate ENLYEQS	area with substrate ENLYIQS	area with substrate ENLYLQS	area with substrate ENLYNQS	area with substrate ENLYRQS	area with substrate ENLYWQS	area with substrate ENLYHQS	area with substrate ENLYPQS
E107P	0.0629	0.104	0.01	0.0627	0.0731	0.101	0.0699	0.0502	0.107	0.0595									
E107I	0.0786			0.0615		0.0588	0.0755		0.12		0.0569	0.0685	0.114	0.0806	0.078	0.0757	0.0628		
V113F	0.0838					0.0805		0.0634				0.0697		0.059	0.0578			0.0889	
V113R	0.0534	0.0633	0.0726	0.0673	0.067		0.0842		0.0825	0.0614	0.0553				0.0644	0.043		0.0652	0.0477
F133H	0.0943		0.0683	0.0041	0.0797		0.0843	0.0633	0.133	0.0613		0.0716	0.13		0.0884	0.0685	0.0813	0.0783	0.0681
F133I	0.083	0.0798	0.0676	0.0728	0.0917		0.068		0.101	0.0724	0.0535	0.0663			0.0731	0.0617		0.073	0.0819
P134V	0.0724	0.0605	0.0731	0.0549		0.0756	0.0684		0.0701		0.0573	0.0697	0.0934		0.0587	0.0609	0.0686	0.0274	0.0571
I110Y	0.0512				0.0415							0.0417			0.0642				
F140Y	0.0802	0.0803		0.0569					0.122	0.0672	0.0678	0.0665			0.0744			0.0814	
I145L	0.0706		0.0617	0.052		0.0667			0.0906	0.0514					0.0598		0.0894	0.0707	
I145M	0.0571	0.158	0.0615	0.0619	0.0714	0.0624	0.0471		0.058	0.0573	0.0541	0.0537	0.114		0.0622		0.0475	0.0604	0.0597
I139C	0.0636										0.0714	0.0634	0.0865		0.0537	0.0583	0.0992	0.0786	0.0616
S123R	0.0675		0.0598	0.0673	0.105	0.064	0.0657	0.0909	0.126	0.0601		0.066		0.0955	0.0858	0.0709	0.0821	0.0716	0.0782
M125Q	0.0819	0.0838		0.084		0.0607	0.0765	0.0714	0.101	0.0718	0.0598	0.0658		0.0899	0.0751	0.0281	0.0773	0.0686	0.0632
M125P	0.06		0.0692			0.099	0.0714					0.077	0.137		0.0665	0.0558	0.0795	0.0899	0.0867
M125H	0.0479	0.0711	0.0595	0.0578	0.0744	0.058	0.0824	0.0913	0.0953	0.0624	0.0588	0.0487	0.138		0.0513	0.0642		0.0476	0.0634
M125C	0.0731				0.097	0.0591	0.0704		0.11	0.0648	0.0662	0.0643	0.132	0.0629	0.0665	0.0652	0.0674	0.0646	0.0669
G138S	0.0745			0.0716	0.0788				0.111			0.0772				0.0579			0.0514
S127Q	0.0818		0.0494	0.0628	0.086	0.0589		0.0878			0.0708	0.0551	0.132		0.0617	0.0624		0.075	0.0785
S127W	0.0948			0.0362			0.0708	0.0828		0.0722	0.0647	0.0576	0.126	0.117	0.0718	0.0568	0.0728	0.0566	
Q118P	0.074		0.0788	0.0476				0.0502			0.0635	0.0672						0.0725	0.0689
T114E	0.0734			0.0162				0.0917	0.0894	0.0586			0.102			0.0703			
S135W	0.0507		0.0658	0.0115	0.0466	0.0471	0.0738	0.0456	0.0619	0.0917		0.0644	0.0591		0.0556	0.0581		0.0682	0.0626
T115A	0.0741			0.0706	0.0918				0.156	0.0608	0.0593	0.0583	0.0463		0.0602	0.078	0.0619	0.0652	0.0886
T119V	0.0714		0.106	0.0809				0.0838		0.0616	0.0218	0.0596	0.113		0.079		0.0822	0.0766	0.0622
S130M	0.0304		0.0612	0.066	0.0729	0.0453	0.0491			0.0584	0.0801	0.0702		0.0579	0.0734		0.0725	0.073	0.083
S130H	0.0828	0.0815	0.0555	0.0808	0.0711			0.0594	0.0666	0.06	0.0556	0.0527	0.122	0.0966	0.0695	0.0739	0.0736	0.102	0.105
S130K	0.058	0.0485	0.0698	0.0526	0.0895	0.064	0.0698	0.0896	0.117		0.0644	0.0663	0.133		0.064	0.0527	0.0896	0.0664	0.0881
